# Patent US6828450B2, “Triptycene analogs” (Kansas State University Research Foundation, priority 2000, dated 2004)
# Some of these results come from one statement about several compounds together. At least one compound was matched to its structure with a doubt left.
# Tested on: L1210 cells
# Test: L1210 tumor cell proliferation assay (Coulter counter)
# Details: 256 nM, 4 days
# Procedure: FIG. 1. […] For tumor cell growth and viability, L1210 cells were respectively seeded in triplicate at initial densities of 1×10^4 and 1.11×10^4 cells/0.5 ml/well in RPMI 1640 medium containing 7.5% FCS and penicillin (100 IU/ml)-streptomycin (100 μg/ml), and grown for 4 days in the presence or absence (control) of 256 nM concentrations of the indicated compounds in a humidified incubator at 37° C. with 5% CO2 in air. Cell density was monitored using a Coulter counter. […] The ability of viable cells/0.5 ml to bioreduce 0.1 ml of MTS:PMS (20:1) reagent over a 3-h incubation period at 37° C. was assessed by measuring the absorbamce of the water-soluble formazan products at A490 nm.
# FIG. 3. […] The protocol of the experiment was identical to that of FIG. 1. […] Drug concentrations are plotted on a logarithmic scale.
# TT0 was purchased from Aldrich (Milwaukee, Wis.). All solutions of synthetic TTs and tricyclic pyrone H10, vincristine (VCR; a gift from Lilly Researeh Laboratories, Indianapolis, Ind.) and camptothecin (CPT; from Sigma Chemical Co., St Louis, Mo.) were dissolved and diluted in dimethyl sulfoxide (DMSO), whereas daunomycin (DAU) (from Sigma) solutions were prepared in 0.1 M potassium phosphate buffer, pH 7.4, containing 0.9% NaCl. Suspension cultures of murine L1210 lymphocytic leukemia cells (American Type Culture Collection, Rockville, Md.) were maintained in continuous exponential growth by twice-a-week passage in RPMI 1640 medium supplemented with 7.5% fortified bovine calf serum (FCS; HyClone Laboratories, Logan, Utah) and penicillin (100 IU/ml)-streptomycin (100 μg/ml), and incubated in the presence or absence of drugs at 37° C. in a humidified atmosphere containing 5% CO2. […] Control cells incubated in the absence of drugs were similarly treated with vehicle only and, in every experiment, all incubates received the same volume of solvent. For drug removal, incubates were spun at 200×g for 10 min, drug-containing supernatants were discarded, and intact cells were washed thrice with 1 ml of the above RPMI 1640 culture medium and resuspended in 0.5 ml of fresh medium for further incubation.
# For tumor cell growth, L1210 cells were resuspended in fresh FCS-containing RPMI 1640 medium, plated at an initial density of 1×10^4 cells/0.5 ml, and incubated in 48-well Costar cell culture plates (Costar, Cambridge, Mass.). Except when otherwise specified, cells were grown for 4 days in the presence or absence of drugs and their density was monitored every 24 h using a Coulter counter (Coulter Electronics, Luton Beds, UK).
Molecule,% inhibition of L1210 cell growth (cytostatic),% inhibition of L1210 cell growth (cytostatic) (0.256 µM)
"O=C1C=CC(=O)C2=C1C1c3ccccc3C2c2ccccc21 [TT7, 9,10-Dihydro-9,10-[1′,2′]benzenoanthracene-1,4-dione]",55-57%,
"COC1=CC(=O)C2=C(C1=O)C1c3ccccc3C2c2ccccc21 [TT9, 2-Methoxy-9,10-dihydro-9,10-[1′,2′]benzenoanthracene-1,4-dione]",55-57%,
"O=C1C=CC(=O)[C@H]2C3c4ccccc4C(c4ccccc43)[C@@H]12 [TT6, (4aS*,9aR*)-4a,9,9a,10-Tetrahydro-9,10-[1′,2′]benzenoanthracene-1,4-dione]",32-45%,
"COC1=CC(=O)C2C3c4ccccc4C(c4ccccc43)C2C1=O (stereo not drawn) [TT8, (4aS*,9aR*)-2-Methoxy-4a,9,9a,10-tetrahydro-9,10-[1′,2′]benzenoanthracene-1,4-dione]",32-45%,
"COc1cc(O)c2c(c1O)C1c3ccccc3C2c2c(OC)ccc(OC)c21 (stereo not drawn) [TT3, 1,4-Dihydroxy-2,5,8-trimethoxy-9,10-dihydro-9,10-[1′,2′]benzenoanthracene]",32-45%,
"COC1=CC(=O)C2=C(C1=O)C1c3ccccc3C2c2c(OC)ccc(OC)c21 (stereo not drawn) [TT5, 2,5,8-Trimethoxy-9,10-dihydro-9,10-[1′,2′]benzenoanthracene-1,4-dione]",32-45%,
"COC1=C(Br)C(=O)C2=C(C1=O)C1C3=C(C(=O)C=CC3=O)C2c2ccccc21 (stereo not drawn) [TT13, 2-Bromo-3-methoxy-9,10-dihydro-9,10-[1′,2′]benzenoanthracene-1,4,5,8-tetraone]",67-68%,
"9,10-Dihydro-9,10-[1′,2′]benzenoanthracene-1,4,5,8-tetraone [TT1]",55-57%,
"COC1=CC(=O)C2=C(C1=O)C1C3=C(C(=O)C=CC3=O)C2c2ccccc21 (stereo not drawn) [TT2, 2-Methoxy-9,10-dihydro-9,10-[1′,2′]benzenoanthracene-1,4,5,8-tetraone]",,67-68%
